According to PubChem BioAssay AID1460 (National Center for Advancing Translational Sciences (NCATS), 2008):
Several values for one entry are separate records, joined by “and”; a condition that tells them apart may be missing. Identical values can stand only once. In all, about 270,000 compounds went through this assay and about 5,800 (2.1%) were called active. This list was built around the results that the source calls inconclusive (neither active nor inactive); the mix of calls is not that of the screen. Calls follow the shape of the dose curve; as a rule, active = well fitted inhibition curve with a large enough effect; inconclusive = small, poorly fitted or top-dose-only effect; inactive = flat fitted curve, though single readings scatter. A potency beside an inconclusive call is a rough fit, not a confirmed value.

Each compound was assayed against Microtubule-associated protein tau (Homo sapiens) (UniProt P10636) (assay: qHTS for Inhibitors of Tau Fibril Formation, Thioflavin T Binding). Conditions: recombinant tau K18 P301L (four-repeat tau fragment), heparin-induced fibrillization, ThT fluorescence; series mostly up to 57.4 µM.
Chain of UniProt P10636 (P10636 whole entry, looked up, the tested form may be a part): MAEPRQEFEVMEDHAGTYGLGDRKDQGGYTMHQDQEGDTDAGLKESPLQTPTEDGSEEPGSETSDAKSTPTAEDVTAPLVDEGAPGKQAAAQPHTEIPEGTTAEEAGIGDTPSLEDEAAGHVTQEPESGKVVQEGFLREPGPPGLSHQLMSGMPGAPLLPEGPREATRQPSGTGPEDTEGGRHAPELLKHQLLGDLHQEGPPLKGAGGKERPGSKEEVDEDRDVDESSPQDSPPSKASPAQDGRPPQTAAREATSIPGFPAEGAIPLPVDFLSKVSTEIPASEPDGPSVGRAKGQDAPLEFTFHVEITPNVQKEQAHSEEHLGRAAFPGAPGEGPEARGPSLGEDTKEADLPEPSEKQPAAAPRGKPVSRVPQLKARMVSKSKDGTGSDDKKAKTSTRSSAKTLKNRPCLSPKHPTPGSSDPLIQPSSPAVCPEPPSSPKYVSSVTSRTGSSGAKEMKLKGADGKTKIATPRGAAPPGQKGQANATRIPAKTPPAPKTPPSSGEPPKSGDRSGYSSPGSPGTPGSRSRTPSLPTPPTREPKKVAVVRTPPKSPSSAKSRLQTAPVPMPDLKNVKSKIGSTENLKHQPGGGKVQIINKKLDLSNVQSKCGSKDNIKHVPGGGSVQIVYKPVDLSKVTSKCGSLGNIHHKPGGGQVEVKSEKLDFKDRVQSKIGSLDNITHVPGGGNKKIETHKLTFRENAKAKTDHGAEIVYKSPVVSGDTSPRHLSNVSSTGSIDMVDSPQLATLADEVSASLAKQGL
In short: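 Heparin-induced fibrillization of the P301L-mutant K18 repeat-domain fragment of human tau was followed by ThT binding in quantitative high-throughput format.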
% is scaled to controls: 0 for no effect and ±100 for the full control effect; potency is read from the fitted curve at half-maximal effect; tags tell the direction and shape of the fitted curve.
Also: nearly all actives have a fitted effect of over 55% in size.

Structure (SMILES) | Potency | activity, negative = inhibition
Oc1ccc(/C=N/NC(=S)Nc2cccnc2)cc1 | inconclusive: 35.5 µM [inhibitor, single point] | –
CN(C)CCCn1c(N)c(C#N)c2nc(C#N)c(C#N)nc21 | inconclusive: 25.1 µM [inhibitor, partial curve] | –
COC(=O)C1=C(C)N(Cc2ccccc2)[C@]23O[C@](C(=O)OC)(C(=O)N2C1c1ccccc1)C1CCCC(=O)C13 (stereo partly specified) | – | inactive: -3.4% [at 11.5 µM] and inactive: -18.7% [at 11.5 µM]
Cc1cc(Br)c(NC(=O)CCl)c(Br)c1 | inactive | –
CCOC(=O)c1c(S(=O)(=O)N2CCCC(C(=O)NCc3cccc(OC)c3)C2)c(C)n(C)c1C (stereo unspecified) | inactive | –
CC1=NN2C(=N)/C(=C\c3ccc(SCc4ccccc4)o3)C(=O)N=C2S1 | inconclusive: 3.16 µM [inhibitor, full curve] | –
COc1ccc(CCNc2nc(-c3ccc(OC)c(OC)c3)cc(C(F)(F)F)n2)cc1OC | inconclusive: 10 µM [inhibitor, partial curve] | –
Cc1cccc(CS(=O)(=O)Cc2ccc(C(=O)NCCc3ccccc3)o2)c1 | inactive | –
Fc1ccc(N2CCN(C3=Nc4cccc5cccc3c45)CC2)cc1 | active: 4.47 µM | –
Cc1cc(C)cc(-n2ccn(CC(=O)Nc3cc(C)ccc3C)c(=O)c2=O)c1 | inconclusive: 2.82 µM [inhibitor, full curve] | –
CC(C)Cn1c(=O)c2ccccc2n2c(SCC(=O)N3c4ccccc4CC3C)nnc12 (stereo unspecified) | inactive | –
Nc1nc2ccccc2n1C(=O)c1ccccc1 | inactive | –
CC(C)(C)c1cc(=O)n(-c2ccccc2)[nH]1 | active: 39.8 µM | –
Cc1ccc(N2CC(NC(=O)c3ccc(S(=O)(=O)N4CCCC4)cc3)CC2=O)cc1C (stereo unspecified) | inactive | –
CCOc1ccc(CCNC(=O)c2sc3ncccc3c2-n2cccc2)cc1OCC | inconclusive: 35.5 µM [inhibitor, single point] | –
COc1cc(SC)ccc1C(=O)Nc1ccccc1C#N | inconclusive: 11.2 µM [inhibitor, partial curve] | –
COC(=O)c1ccc(-c2nc3cc(NC(C)=O)ccc3o2)cc1 | inconclusive: 0.447 µM [inhibitor, full curve] | –
O=C(CSc1nnc(CCc2ccccc2)n1-c1ccc(Cl)cc1)c1ccccc1 | inconclusive: 20 µM [inhibitor, single point] | –
O=C(OOC(=O)c1ccccc1)c1ccccc1 | inactive | –
CCCCc1nn2c(=O)cc(COC(=O)C3CCCCC3)nc2s1 | inconclusive: 8.91 µM [inhibitor, partial curve, poor fit] | –
CC(=O)C(Sc1nn(C)c(=S)s1)C(=O)Nc1ccccc1 (stereo unspecified) | inconclusive: 28.2 µM [inhibitor, single point] | –
C=CCn1c(SCC(=O)c2ccc(O)c(O)c2)nnc1-c1cccnc1 | inconclusive: 22.4 µM [inhibitor, partial curve] | –
COc1ccc(Cl)cc1C(=O)NNC(=S)NC(=O)c1cc(-c2ccccc2)nc2ccccc12 | inactive | –
N[C@@H](Cc1c[nH]c2ccccc12)C(=O)O | inconclusive: 39.8 µM [inhibitor, single point] | –

Structure (SMILES) | Potency | activity, negative = inhibition
O=C(CCc1ccccc1)NNC(=O)Cc1ccccc1 | inactive | –
O=C(CCCSc1ccccc1)Nc1nc(-c2ccco2)c(-c2ccco2)s1 | inconclusive: 8.91 µM [inhibitor, partial curve] | –
CCN1C(=O)C(NC(C)=O)c2cc(OC)ccc21 (stereo unspecified) | inactive | –
COc1ccc(-c2nn(C)c(=O)c3ccccc23)cc1NS(C)(=O)=O | inconclusive: 44.7 µM [inhibitor, single point] | –
Cc1ccc(Cl)cc1N1CCN(C(=O)CCNS(=O)(=O)c2ccc3c(c2)CCN3C(=O)C2CC2)CC1 | inconclusive: 11.2 µM [inhibitor, partial curve] | –
O=C(Cc1cccs1)N=Nc1c(O)[nH]c2ccc(Br)cc12 | inconclusive: 12.6 µM [inhibitor, partial curve] | –
CCOc1ccc(CC(=O)Nc2sc(Cc3ccccc3)c(C)c2C(N)=O)cc1OCC | inconclusive: 25.1 µM [inhibitor, partial curve] | –
Cc1oc(/N=C/c2cccc3ccccc23)c(C#N)c1C | inconclusive: 39.8 µM [inhibitor, single point] | –
Cc1cccc(NC(=O)C(=O)NCC(c2cccnc2)N2CCc3ccccc3C2)c1C (stereo unspecified) | inconclusive: 4.47 µM [inhibitor, partial curve] | –
CCSS(=O)(=O)c1cccc2cccnc12 | inconclusive: 7.08 µM [inhibitor, single point] | –
CCCCCCCC/C=C\CCCCCCCC(N)=O | inactive | –
O=C(CNC(=O)c1cccc(Cl)c1)N/N=C/C=C/c1ccccc1 | inactive | –
COc1ccc(NCC(=O)N/N=C/c2c(C)nn(Cc3ccccc3)c2Cl)cc1 | inconclusive: 14.1 µM [inhibitor, partial curve] | –
CCN(CCNC(=O)C1CCN(Cc2nc(-c3cccc(Cl)c3)oc2C)CC1)c1ccccc1 | inconclusive: 17.8 µM [inhibitor, partial curve, poor fit] | –
Cc1cc(-n2c(C)cc(C(=O)CSc3ncnc4ccccc34)c2C)no1 | inconclusive: 25.1 µM [inhibitor, partial curve] | –
COc1ccccc1N1CCN(CCCCNC(=O)c2ccc(-c3ccc(C(C)=O)cc3)cc2)CC1 | inconclusive: 2.24 µM [inhibitor, full curve] and inconclusive: 2.82 µM [inhibitor, partial curve] | –
COc1ccc(Cl)cc1-c1n[nH]c(=S)o1 | inactive | –
O=C(N/C=C/c1ccco1)OCc1ccccc1 | inconclusive: 15.8 µM [inhibitor, partial curve] | –
CCCSc1nnc2[nH]c(=O)cc(C)n12 | inactive | –
O=C(Nc1nnc(S(=O)(=O)Nc2ccccc2)s1)C1CCCCC1 | inconclusive: 2.24 µM [inhibitor, full curve] | –
COc1c([N+](=O)[O-])c(=O)oc2ccccc12 | inconclusive: 35.5 µM [inhibitor, single point] | –
O=S1(=O)CC/C(=N\Nc2ccc(F)cc2)c2ccsc21 | inconclusive: 28.2 µM [inhibitor, single point] | –
COc1ccc(C(=O)Cn2nnc(-c3ccc(N4CCOCC4)cc3)n2)cc1OC | inconclusive: 28.2 µM [inhibitor, partial curve] | –
Cc1ccc(NC(=O)CCn2ccc([N+](=O)[O-])n2)nc1 | inactive | –

Structure (SMILES) | Potency | activity, negative = inhibition
C(=N\Nc1ncnc2ccccc12)/c1ccccc1 | inconclusive: 31.6 µM [inhibitor, partial curve] | –
CCCC(=O)Nc1nc(C)c(C(C)=O)s1 | inactive | –
C[n+]1c(/C=C/c2ccc3c(c2)OCO3)ccc2ccccc21 | inconclusive: 14.1 µM [inhibitor, partial curve] | –
COC(=O)c1ccc(C(=O)OC)c(NC(=O)c2cnn3c(C(F)F)cc(-c4ccccc4)nc23)c1 | inactive | –
COC(=O)[C@@H](NC(=O)O[C@@H]1C(=O)c2cc(OC)ccc2O[C@H]1c1ccc(OC)c(Br)c1)C(C)C | inactive | –
Cc1ccc(CC(=O)N2CCN(C(=O)c3ccco3)CC2)cc1 | inactive | –
Cc1nn(-c2ccc(N3CCCC3)nn2)c(C)c1CCC(=O)N1CCN(c2ccccc2)CC1 | inconclusive: 44.7 µM [inhibitor, single point] | –
N/C(=N\OS(=O)(=O)c1ccc2ccccc2c1)c1ccccn1 | inactive | –
CCCCN(CC)Cc1ccc(CNC(=S)Nc2c(C)cc(C)cc2C)o1 | inactive | –
CSc1nnc(-c2ccccc2N=Cc2c(C)[nH]n(-c3ccc4ccccc4c3)c2=O)c(=O)[nH]1 | active: 22.4 µM | –
Cc1noc(C)c1CSCC(=O)OCc1nc2ccccc2c(=O)n1CC#N | inconclusive: 25.1 µM [inhibitor, single point] | –
O=C(CSc1nc(O)c(Cc2ccccc2)c(=O)[nH]1)Nc1ccccc1 | inconclusive: 14.1 µM [inhibitor, partial curve, poor fit] | –
O=C(NN1C(=O)/C(=C/C=C/c2ccco2)SC1=S)c1ccccc1O | active: 7.08 µM | –
Cc1c(C(N)=O)sc2ncn(CC(=O)NCCc3ccccc3)c(=O)c12 | inconclusive: 39.8 µM [inhibitor, single point] | –
CC(=O)N1CCN(c2ccc(NCc3ccc4c(c3)OCO4)cc2)CC1 | active: 15.8 µM | –
O=C(O)CCCCCN1C(=O)/C(=C/c2ccncc2)SC1=S | inconclusive: 10 µM [inhibitor, partial curve] | –
O=[N+]([O-])c1ccc(NCCCNS(=O)(=O)c2ccc(Cl)cc2)c(Cl)c1 | inconclusive: 28.2 µM [inhibitor, single point] | –
Cn1c(O)c(N=NC(=O)C2COc3ccccc3O2)c2ccccc21 (stereo unspecified) | inconclusive: 22.4 µM [inhibitor, partial curve] | –
Cc1ccc(N=CC2=C(O)CC(c3cccc(Cl)c3)CC2=O)cc1 (stereo unspecified) | inconclusive: 3.16 µM [inhibitor, full curve] | –
Cc1ccccc1CS(=O)(=O)CCC(=O)NCCN1CCN(c2cccc(Cl)c2)CC1 | inconclusive: 22.4 µM [inhibitor, partial curve] | –
CCN(c1ccc(N=Cc2c(O)n(Cc3ccc(OC)cc3)c(=O)c3ccccc23)cc1)C(C)C | inactive | –
CCCCn1c(SCC(=O)NC(C)CC)nc2ccc(N3CCOCC3)cc2c1=O (stereo unspecified) | inconclusive: 39.8 µM [inhibitor, single point] | –
O=C(NC(=S)Nc1ccc(N2CCCCC2)cc1)c1ccco1 | inconclusive: 15.8 µM [inhibitor, partial curve] | –
